Measurements published in publication PMC6325244.
Results are given in words; binding and its absence hold for the method and conditions named. Binding seen in cells or lysates may run through a third protein. Some binding calls cover weakened binding; strength is not graded here. Where a sequence is shown, tags or fusion partners need not be part of it.

Biological target: T1, HisFtsW (E. coli) (UniProt P0ABG4)
T1 sequence: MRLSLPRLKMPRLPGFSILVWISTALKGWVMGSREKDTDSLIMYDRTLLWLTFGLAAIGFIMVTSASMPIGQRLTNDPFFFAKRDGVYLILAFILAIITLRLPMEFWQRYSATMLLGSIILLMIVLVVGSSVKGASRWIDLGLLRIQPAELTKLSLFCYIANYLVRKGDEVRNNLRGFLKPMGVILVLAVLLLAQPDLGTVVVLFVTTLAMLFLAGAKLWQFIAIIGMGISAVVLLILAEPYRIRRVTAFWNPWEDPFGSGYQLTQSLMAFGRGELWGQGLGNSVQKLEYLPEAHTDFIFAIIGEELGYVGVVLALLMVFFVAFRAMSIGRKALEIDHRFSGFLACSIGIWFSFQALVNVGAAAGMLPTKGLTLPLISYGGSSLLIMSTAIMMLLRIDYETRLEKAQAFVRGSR
Assay: pull-down; coexpression from compatible Duet vectors in E. coli, complexes extracted from membranes with detergent, affinity copurification on a HisTrap/Ni column with one His-tagged protein as bait; eluate labeled with fluorescent ampicillin when PBPs were present, SDS-PAGE, fluorescence imaging, Coomassie staining, immunoblot

binding: binds
Substance: StrepFtsBLQ complex (Strep-FtsB, FtsL, FtsQ) (from UniProt P0A6S5 1-103; P0AEN4 1-121; P06136 1-276)
